Source: patent US4602011A, “Antimicrobial compositions and methods of using same” (Chapman Chemical Company, priority 1982, dated 1986)
In brackets after ≈: the same amount, converted by molar mass.

Tested on: Salmonella cholerasuis (10708)
Assay: minimum bactericidal concentration
Details: for MBC: Salmonella, 24 h, read-out: Minimum bactericidal concentration

Row | Compound | MBC [µg/mL] | Minimum bactericidal concentration (ppm of active ingredient) [ppm]
1 | CCCS(=O)(=O)c1c(Cl)cnc(Cl)c1Cl [G] | 165 (≈ 572 µM) | –
2 | Oc1c(Cl)c(Cl)c(Cl)c(Cl)c1Cl [F] | 250 to 500 (≈ 939 to 1880 µM) | –
3 | CCCCCCCCCCCCc1ccc(S(=O)(=O)O)cc1 [DDBSA, dodecyl benzene sulfonic acid] | – | 1000
